Test results from paper PMC6919601, “Identification of Plasmodium dipeptidyl aminopeptidase allosteric inhibitors by high throughput screening” (PLoS ONE, 2019).
The whole screen tested about 110,000 compounds, of which about 230 (0.21%) showed an effect of 50% or more. This is one part of the list.

Target: DPAP1 (Plasmodium falciparum, UniProt Q8IIJ9)
Assay: primary screen, percent inhibition; read by cleavage of a fluorogenic dipeptide substrate; higher = more effect of the substance
Design: species or system P. falciparum D10 trophozoite lysates; single well
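Note: 30 min substrate incubation versus DMSO and 10 µM JCP410 controls.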

Chain of DPAP1 (Q8IIJ9 whole entry, looked up): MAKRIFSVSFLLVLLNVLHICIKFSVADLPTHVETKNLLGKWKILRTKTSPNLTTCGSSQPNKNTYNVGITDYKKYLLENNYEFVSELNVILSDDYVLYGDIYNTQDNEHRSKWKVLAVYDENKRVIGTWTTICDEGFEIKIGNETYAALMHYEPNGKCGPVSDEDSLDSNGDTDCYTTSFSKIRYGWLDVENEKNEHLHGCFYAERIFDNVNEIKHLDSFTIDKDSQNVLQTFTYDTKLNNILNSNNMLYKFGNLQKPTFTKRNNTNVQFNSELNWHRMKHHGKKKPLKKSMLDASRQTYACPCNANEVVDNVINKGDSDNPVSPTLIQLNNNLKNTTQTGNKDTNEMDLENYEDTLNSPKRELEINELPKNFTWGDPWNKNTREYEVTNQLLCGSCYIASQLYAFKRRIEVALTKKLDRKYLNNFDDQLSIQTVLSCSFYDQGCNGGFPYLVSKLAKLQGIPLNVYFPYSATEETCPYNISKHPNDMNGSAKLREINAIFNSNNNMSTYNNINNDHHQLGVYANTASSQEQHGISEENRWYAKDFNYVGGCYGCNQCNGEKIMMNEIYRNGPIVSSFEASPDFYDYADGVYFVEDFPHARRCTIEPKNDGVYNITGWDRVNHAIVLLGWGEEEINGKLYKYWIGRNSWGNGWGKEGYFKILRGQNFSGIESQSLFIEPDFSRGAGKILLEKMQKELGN

Compound	% Inhibition @ 10 uM [%]
c1ccc2c(c1)CN(CCN1CCCC1)C2	0.722
Cc1sc(NC(=O)CCC(=O)O)nc1-c1ccc(F)cc1	0.727
Cc1cc(C)c2c(C)c(C(=O)N(Cc3sccc3C)C3CCS(=O)(=O)C3)oc2c1 (stereo not drawn)	0.569
COCCCNc1nc2c(-c3ccc(Cl)cc3)nnn2c2ccccc12	-2.92
Cn1c(=O)c2nc3ccc(N)cc3nc2n(C)c1=O	-0.807
O=C1NC2(CCN(C(=O)c3cccc(Cl)c3)CC2)N=C1c1ccccc1	1.76
O=C(O)CSC(=S)N1CCCCC1	-3.72
CC(C)(C)SCCNC(=O)CN(c1cccc(Br)c1)S(C)(=O)=O	-1.11
CN(CCCNC(=O)C1c2ccccc2C(=O)N(C)C1c1cccs1)Cc1ccccc1 (stereo not drawn)	-6.05
O=C(NC1CCCc2ccccc21)c1cc(-c2ccc(F)cc2)n[nH]1 (stereo not drawn)	2.11
CC(C)OCCCNC(=O)CN1N=C(c2ccc(Cl)cc2)CCC1=O	3.59
O=C(Cc1ccccc1)N1CCN(Cc2ccccc2)CC1	-4.3
CCN1CCCC1CNC(=O)Cn1ncc2c(C)n(Cc3ccc(F)cc3)c(C)c2c1=O (stereo not drawn)	-5.81
Cc1cc(C)c2c(NC(=O)c3ccccc3Cl)c(C(=O)NCc3ccco3)sc2n1	-3.34
CC(C)(C)c1[nH]nc2c1C(c1cc(Br)ccc1F)C(C#N)=C(N)O2 (stereo not drawn)	-0.661
CC(NC(=O)c1ccc(Br)cc1)C1COc2ccccc2O1 (stereo not drawn)	3.24
O=C(Cn1ncn2cccc2c1=O)N1CCC2(CC1)OCCO2	-0.542
COc1ccc(-c2c(C)nn3c(O)c4c(nc23)CCCC4)cc1	-0.267
Cc1ccc2c(c1)-c1ccccc1C2=O	1.76
OCC1CCCN1Cc1cccc(Cl)c1Cl (stereo not drawn)	-4.75
C#CCn1cc(/C=C2/NC(=O)N(CC(=O)Nc3cccc(C)c3)C2=O)c2ccccc21	-12.3
Cc1ccc(Cc2nnc(C(=O)NCCC(C)C)o2)cc1	-1.68
COc1cc(/C=C2\Sc3ccccc3C2=O)ccc1OCC#N	-4.67
Cc1occc1C(=O)N1CCN(c2ccccc2)CC1	-0.171
COC(=O)c1c(NC(=O)c2c(-c3ccccc3Cl)noc2C)sc2c1CCCC2	11.8
O=c1c2ccccc2n2c(-c3ccc(Cl)cc3)nnc2n1Cc1ccccc1	1.68

Compound	% Inhibition @ 10 uM [%]
CCC(C)NC(=O)C1CCCN(S(=O)(=O)c2ccc3[nH]c(-c4ccccc4)nc3c2)C1 (stereo not drawn)	0.589
O=C(Cn1ncc2ccc(Cl)cc21)NCc1cccs1	3.84
O=c1c2ccccc2nc2n1CCN2Cc1ccc(Cl)cc1	4.69
O=C(NCc1cccnc1)c1ccc(Cn2c(SCc3ccccc3F)nc3ccncc32)cc1	-1.92
O=C(Nc1ccc(Cl)cc1C(=O)NCC1CCCO1)c1ccc(Cl)cc1Cl (stereo not drawn)	-3.09
CC(Oc1ccc(C(=O)Nc2ccc(F)cc2)cc1)C(=O)O (stereo not drawn)	-1.6
C=Cc1ccc(Cn2c(C(=O)O)c(CNCc3ccccc3F)c3ccc(C)cc32)cc1	10.2
COc1cc(C2C(C#N)=C(N)Oc3[nH]nc(C)c32)ccc1OCc1ccc(Cl)cc1 (stereo not drawn)	-0.105
COc1cccc(-c2noc(-c3ccc4c(c3)OCO4)n2)c1	4.18
CCCCc1nc(N)c(C#N)c(-c2ccccc2)c1CCC	97.8
OC1CCN(Cc2ccc(Cl)cc2)CC1	-5.41
O=C(NCc1ccccc1)c1cnn2c(C(F)(F)F)cc(-c3ccc(Br)cc3)nc12	2.32
CN1CCN(S(=O)(=O)c2ccc3ccccc3c2)CC1	-3.27
CN1C(=O)/C(=C2\SC(=O)N(Cc3ccccc3)C2=O)c2ccccc21	-2.17
CCCN1C(=O)c2cc(C(=O)NCc3ccc(OC)cc3)ccc2C1O (stereo not drawn)	-1.24
O=c1[nH]c(=S)[nH]c2sc3c(c12)CCN(Cc1ccccc1)C3	1.4
COc1cccc(C(=O)N2C(C)CCCC2C)c1 (stereo not drawn)	-3.35
O=C(CSc1nc(-c2ccco2)cc(C(F)(F)F)n1)Nc1ccccc1	3.04
COc1cccc(C(=O)Nc2nc(-c3nnn(-c4cc(OC)ccc4OC)c3C)ns2)c1	-4.55
O=C(Nc1ccccc1[N+](=O)[O-])C12CC3CC(CC(C3)C1)C2	-4.21
O=C(O)C1CC=CCC1C(=O)Nc1ccc(Br)c2cccnc12 (stereo not drawn)	-2.07
COCC(C)NCc1cccc(OC)c1 (stereo not drawn)	0.916
CC(NC(=O)C1CC1c1ccccc1)c1ccccc1 (stereo not drawn)	-2.51
COc1cc(C)nc(N(C)S(=O)(=O)c2ccc(C)cc2)n1	17
CCOc1cc(/C=C2/C(=N)N3C(=NC2=O)SN=C3S(C)(=O)=O)ccc1OCc1ccccc1	5.06
CC1=C(C(=O)OCC(C)C)C(c2ccc(Br)cc2)NC(=O)N1 (stereo not drawn)	-1.37

Compound	% Inhibition @ 10 uM [%]
O=C([C@@H](c1ccccc1)N1Cc2ccccc2C1=O)N1CCN(Cc2ccccc2)CC1	-2.25
CCn1cc(CCC(=O)NCCc2ccc(Cl)cc2)c2ccccc21	-3.44
CC1=NN(C(=O)CCCc2ccccc2)C(O)(C(F)(F)F)C1 (stereo not drawn)	3.05
Cc1ccccc1C(=O)Nc1scc(CC(C)C)c1C(=O)O	1.25
c1ccc2sc(Sc3ncnc4sc5c(c34)CCCC5)nc2c1	1.21
Cc1nn(CCCC(=O)NC(C)CCc2ccccc2)c(=O)c2c1sc1ccccc12 (stereo not drawn)	-4.59
COc1ccc(C(O)(Cc2ccccc2)C(CN2CCOCC2)c2ccccc2)cc1 (stereo not drawn)	-0.551
CC(C)OCCCNc1cnn(C23CC4CC(CC(C4)C2)C3)c(=O)c1Cl	-5.27
O=C(Cn1ncn2cccc2c1=O)NCCCc1ccccc1	-1.65
Cc1ccc(NC(=O)CCn2nc(C(F)(F)F)cc2C)nc1	-9.6
CC(C)C[C@H](NC(=O)c1ccc(F)c(F)c1)C(=O)NCC#N	0.174
CC(Nc1nc2c(S(=O)(=O)c3ccccc3)nnn2c2ccsc12)c1ccccc1 (stereo not drawn)	-8.43
CCCCn1c(=O)c2oc3ccccc3c2n(Cc2ccccc2F)c1=O	1.68
CCC(NC(=O)c1cncc(Br)c1)c1ccccc1 (stereo not drawn)	-2.74
Oc1ccc(/C=N/n2cnnc2)cc1	23.8
CCN1CCN(CC(=O)c2ccc3cc[nH]c3c2)CC1	2.13
CCCNC(=O)c1cc2sccc2n1Cc1ccc(C)cc1	-1.37
O=C(NCc1cccnc1)/C(=C/c1cccnc1)NC(=O)c1ccccc1	0.27
O=C(O)CCNC(=O)c1ccc(C(F)(F)F)cc1	-3.04
COc1ccc(CO/C(O)=C2\C(C)=NC3=C(C(=O)CCC3)C2c2cccs2)cc1 (stereo not drawn)	-1.06
COc1ccc(N2C(N)=C(C#N)C(c3ccc4c(c3)OCO4)C3=C2CCCC3=O)cc1 (stereo not drawn)	-4.48
CCOc1cc(C(=O)N2CCC(C(N)=O)CC2)cc(OCC)c1OCC	6.61
COc1ccc(-c2noc(CNC(=O)CCN3C(=O)c4ccccc4C3=O)n2)cc1	1.9
Cc1nnc2c(NCc3ccccc3)nc3ccccc3n12	-3.49
COC(=O)C1=CN(C)C=C(C(=O)OC)C1c1ccccc1OCc1ccccc1	13.3
Cc1ccnc(Nc2nc(-c3sc(C)nc3C)cs2)c1	3.38

Compound	% Inhibition @ 10 uM [%]
Cc1c(C(=O)NCc2ccc3c(c2)OCO3)oc2ccc(S(=O)(=O)N(C)C3CCCCC3)cc12	9.56
COc1ccc(OC)c(CCNCc2c(C(=O)O)n(C)c3cc(OC)ccc23)c1	-3.27
CCOC(=O)c1c(C)nc2n(CCN3CCCCC3)c3ccccc3n12	0.0538
Oc1ccc(CN2CCN(c3ccc(Cl)cc3)CC2)cc1	4.62
C=C(C)COc1ccc2c(=O)c(Oc3ccc(C(=O)OCC)cc3)coc2c1	-2.91
CC(C)(C)NS(=O)(=O)c1ccc(NC(=O)c2ccc(Cl)cc2)cc1	2.13
CN1C(=O)NC(=O)/C(=C/c2cc3c(cc2Cl)OCO3)C1=O	3.95
COc1ccc(CN2CC(C)CC(C)C2)c(OC)c1 (stereo not drawn)	-1.81
C=CCNC(=O)CSc1nc2nc(C)cc(C)n2n1	2.99
CCCCN(C)C(=O)CCNC(=O)Cn1ccc2ccccc2c1=O	7.85
Cc1cc(O)ccc1NC(=O)c1ccccc1C(=O)O	-2.65
Cc1ccccc1/C=C(/C#N)C(=O)NCc1ccccc1	-0.267
O=C(NCCC1=CCCCC1)C(NS(=O)(=O)c1cccc2nsnc12)c1ccccc1 (stereo not drawn)	-5.1
N#Cc1nc(COc2ccccc2)oc1NCc1ccccc1Cl	5.54
COc1ccc(OC)c(C2C(C#N)=C(N)Oc3cc(O)c(Cl)cc32)c1 (stereo not drawn)	1.42
OCCN1CCN(Cc2ccc(Br)s2)CC1	1.83
c1cc2c(cc1OC1CCNCC1)OCO2	0.635
CCOCCCn1c(=N)c(S(=O)(=O)c2ccc(C)cc2)cc2c(=O)n3cc(C)ccc3nc21	-1.52
COc1ccc(C2=CC(c3ccc(OC)cc3OC)n3ncnc3N2)cc1 (stereo not drawn)	4.86
CCOc1ccc(/C=C/c2nc(C#N)c(N3CC(C)OC(C)C3)o2)cc1 (stereo not drawn)	2.54
CCN(CC)C(=O)CSc1nc2sc3c(c2c(=O)n1C)CCC3	-4.76
O=C(c1ccccc1F)N(Cc1ccco1)Cc1ccccc1Cl	-5.91
CSc1ccc(CCNC(=O)Nc2cn(C)c(=O)c3ccccc23)cc1	5.85
Nc1sc2c(c1C(=O)NC1CCCCC1)CCC2	0.389
